Among all 360,000 compounds or so, about 25,000 (6.9%) were called active. The inconclusive results got no clear call from the source; some entries with a clear call stand among them for comparison. Calls follow the shape of the dose curve; as a rule, active = well fitted inhibition curve with a large enough effect; inconclusive = small, poorly fitted or top-dose-only effect; inactive = flat fitted curve, though single readings scatter. Potencies of inconclusive entries are doubtful fits and often do not repeat.
The molecules below were run against Luciferin 4-monooxygenase (Photinus pyralis) (UniProt P08659) (assay: qHTS profiling assay for firefly luciferase inhibitor/activator using purifed enzyme and Km concentrations of substrates (counterscreen for miR-21 project)). Settings: purified FLuc, luminescence inhibition; series mostly up to 57.5 µM.
Outline: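 Purified P. pyralis luciferase, 10 nM final, with Km-level 10 uM D-luciferin and 10 uM ATP in 50 mM Tris acetate pH 7.5, 10 mM Mg acetate, 0.01% Tween-20, 0.05% BSA; 6-point qHTS titration about 60 µM downward; luminescence read.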
Also: nearly all actives have a fitted effect of over 55% in size.
Potency is read from the fitted curve at half-maximal effect; tags tell the direction and shape of the fitted curve.

UniProt P08659, sequence (P08659 whole entry, looked up): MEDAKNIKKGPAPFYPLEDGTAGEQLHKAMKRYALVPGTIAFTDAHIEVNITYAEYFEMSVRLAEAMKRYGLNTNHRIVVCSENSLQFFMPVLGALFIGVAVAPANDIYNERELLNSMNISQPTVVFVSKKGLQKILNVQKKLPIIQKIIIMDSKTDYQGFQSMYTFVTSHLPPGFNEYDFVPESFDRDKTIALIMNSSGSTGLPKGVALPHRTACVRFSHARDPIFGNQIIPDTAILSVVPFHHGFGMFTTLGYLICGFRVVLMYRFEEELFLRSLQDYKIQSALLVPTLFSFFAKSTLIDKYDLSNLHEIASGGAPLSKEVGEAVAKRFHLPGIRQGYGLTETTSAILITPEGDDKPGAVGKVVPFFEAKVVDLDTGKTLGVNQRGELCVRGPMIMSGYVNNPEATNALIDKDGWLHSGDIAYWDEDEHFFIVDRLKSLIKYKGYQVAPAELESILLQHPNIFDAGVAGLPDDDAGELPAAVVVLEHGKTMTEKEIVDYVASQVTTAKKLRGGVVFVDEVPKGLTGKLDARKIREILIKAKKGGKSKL

SMILES | Potency
CC(=O)Nc1cccc(C(=O)OCC(=O)N2CCC(c3ccccc3)=N2)c1 | active: 15.1 µM
COc1ccc(NC(=O)c2c(C)nn(-c3ccccc3)c2Cl)cc1 | inconclusive: 19 µM [inhibitor, partial curve]
CCOc1ccccc1C(=O)Nc1cccc2cccnc12 | active: 26.9 µM
CCS(=O)(=O)n1nc(-c2ccccc2)nc1SC | inconclusive: 21.3 µM [inhibitor, partial curve, poor fit]
Cc1cc(-c2nnc(-c3cc4ccccc4oc3=O)o2)c(C)n1-c1ccccc1 | active: 6.75 µM
COc1cc(NC(=O)CN2CCCN(Cc3cccc(F)c3)S2(=O)=O)cc(OC)c1 | inactive
c1ccc(CN2CCOCC2)cc1 | inactive
C/C(=N\NC(N)=S)c1ccc2c(c1)OCCO2 | inconclusive: 19 µM [inhibitor, single point]
CCOC(=O)C(=O)/C(C#N)=C/Nc1ccc(F)cc1 | inconclusive: 23.9 µM [inhibitor, single point]
CN(C)c1ccc(/C=C2\C(=N)N3N=C(CC(=O)N4CCCCC4)SC3=NC2=O)cc1 | active: 13.5 µM
Cc1ccc(CONC(=O)c2ccc(OC(F)F)cc2)cc1 | inconclusive: 21.3 µM [inhibitor, single point]
COc1cc(C(=O)Nc2nnc(S(=O)(=O)N3CCCCCC3)s2)cc(OC)c1OC | inactive
CN(C)c1ccc(/C=C2\N=C(c3ccc(Cl)c([N+](=O)[O-])c3)NC2=O)cc1 | inconclusive: 13.5 µM [inhibitor, partial curve, poor fit]
COC(=O)c1ccc(NC(=O)CCn2cnnn2)c(C)c1 | inactive
CCSc1nnc(-c2cccs2)o1 | inactive
Cc1cccc(-n2cc(CN3CCN(c4ccccn4)CC3)c(-c3cccc(F)c3)n2)c1 | inconclusive: 16.9 µM [inhibitor, partial curve]
CCOc1ccc(NC(=O)CSc2c3c(nc4ccccc24)CCCC3)cc1 | inactive
Oc1ccc(Cl)cc1CNCc1cccc2ccccc12 | inactive
Cc1cc(C(=O)NNC(=O)c2sccc2C)c(C)o1 | inconclusive: 30.1 µM [inhibitor, partial curve, poor fit]
CC(C)(C)c1ccc(C(=O)N2CCCC(c3nc4c(nnn4Cc4cccc(F)c4)c(=O)[nH]3)C2)cc1 (centres undefined) | inactive
O=C(O)c1cnn(-c2nc(-c3ccc(F)cc3)cs2)c1C(F)(F)F | active: 21.3 µM
CCOc1ccccc1N1CC(c2nc3ccccc3n2CCCOc2ccc(OC)cc2)CC1=O (centres undefined) | active: 13.5 µM
COc1ccc2nc(NC(=O)CN(c3ccc(C)cc3)S(=O)(=O)c3c(C)nn(C)c3C)sc2c1 | inconclusive: 21.3 µM [inhibitor, partial curve, poor fit]
Cc1cc(O)c(C(c2ccccc2)N2CCN(c3ccc(F)cc3)CC2)c(=O)n1Cc1ccco1 (centres undefined) | inactive
C/C(=N\NC(=O)c1ccco1)c1ccc(-c2ccccc2)cc1 | active: 2.39 µM

SMILES | Potency
COc1ccc(-c2cc(CNS(=O)(=O)c3ccccc3)on2)cc1 | inconclusive: 30.1 µM [inhibitor, partial curve, poor fit]
Cc1ccc(C(=O)CSc2nnc(COc3cccc4cccnc34)o2)cc1 | inconclusive: 26.9 µM [inhibitor, single point]
Oc1c(C=C2N=c3ccccc3=N2)sc(=S)n1-c1ccccc1 | inactive
COc1ccc2c(c1)CCc1c(C(=O)NCCCn3ccnc3)noc1-2 | inconclusive: 37.9 µM [inhibitor, partial curve, poor fit]
Cc1ccc(-n2c(CCC(=O)O)ccc2-c2cccs2)cc1Cl | inconclusive: 10.7 µM [inhibitor, partial curve]
C(=C\c1ccccc1)/C=N/N1CCN(c2ccccn2)CC1 | active: 12 µM
CC(C)(C)n1ncc2c(=O)n(Cc3c(F)cccc3Cl)cnc21 | active: 23.9 µM
O=C(NC(=S)NCc1ccc(-c2nc3ccccc3s2)cc1)c1ccco1 | active: 2.69 µM
Nc1nc(-c2ccc(Br)s2)c(Br)s1 | inconclusive: 21.3 µM [inhibitor, single point]
CSc1ccc(-c2nnn(Cc3ccccn3)n2)cc1 | active: 12 µM
O=C(NC(=S)Nc1ccc(S(=O)(=O)Nc2nccs2)cc1)c1ccc(F)cc1 | inactive
Cc1ccc2occ(CC(=O)N(Cc3ccc(Cl)cc3)Cc3ccco3)c2c1 | inconclusive: 8.49 µM [inhibitor, partial curve, poor fit]
CCc1cccc(NC(=O)Nc2ccc3c(c2)OCO3)c1 | inconclusive: 2.69 µM [inhibitor, full curve]
CSc1nc(N2CCOCC2)nc2ccc(C)cc12 | inconclusive: 23.9 µM [inhibitor, partial curve, poor fit]
O=C(/C=C/NNC(=O)c1ccc(Br)cc1)c1ccccc1 | inconclusive: 21.3 µM [inhibitor, single point]
CCOC(=O)/C=c1\s/c(=C\c2sccc2C)c(=O)n1CC(=O)NCc1ccc(C)cc1 | inactive
O=C(Nc1ccc(N2CCOCC2)cc1)c1cc(-c2ccncc2)nc2ccccc12 | inactive
CCn1ncc(/C=N/NC(=O)c2ccc3c(c2)OCO3)c1C | active: 16.9 µM
O=C(NCCc1ccc(Cl)cc1)c1ccc2ccccc2n1 | inconclusive: 26.9 µM [inhibitor, single point]
COc1ccc(CNc2nc(-c3ccc(Cl)cc3)cc(C(F)(F)F)n2)cc1 | inactive
CN(C)c1ccc(C(=O)Nc2ccc(S(=O)(=O)NC3=NCCCCC3)cc2)cc1 | inconclusive: 16.9 µM [inhibitor, partial curve]
O=C(CSc1n[nH]c(-c2ccco2)n1)Nc1ccccc1F | inactive
N/C(=N\OC(=O)c1ccc(Cl)c([N+](=O)[O-])c1)c1ccccn1 | inconclusive: 2.69 µM [inhibitor, full curve]
CCn1c(=NC(=O)c2ccc(S(=O)(=O)N(C)C)cc2)sc2cccc(OC)c21 | inactive
CCOC(=O)C1(Cc2ccc(OC)cc2)CCN(C(=O)c2csc(C)n2)CC1 | inconclusive: 30.1 µM [inhibitor, partial curve, poor fit]

SMILES | Potency
Cc1sc(NC(=O)CSc2nnnn2C)c(C#N)c1C | inconclusive: 9.53 µM [inhibitor, partial curve, poor fit]
COc1ccc(NC(=O)c2nn(C)cc2[N+](=O)[O-])cc1 | inconclusive: 23.9 µM [inhibitor, partial curve, poor fit]
O=C(Cn1cc(C(=O)C2CC2)c2ccccc21)NCc1ccccc1 | inconclusive: 30.1 µM [inhibitor, single point]
Cn1cccc1/C=N/NC(=O)c1ccn[nH]1 | inconclusive: 23.9 µM [inhibitor, single point]
Cc1nc2cc(-c3cccc(F)c3)nn2c(C)c1CCC(=O)Nc1ccccc1C(N)=O | inconclusive: 23.9 µM [inhibitor, partial curve]
COc1ccc(/C=C2\SC(=S)N(NS(=O)(=O)c3ccccc3)C2=O)c(OC)c1 | inconclusive: 37.9 µM [inhibitor, single point]
CC1(C)C2CCC(C2)C1(C)NC(=O)CNCC1CCCCC1 (centres undefined) | inactive
O=C(CSc1ccc(-c2ccc(F)cc2)nn1)N1CCCc2ccccc21 | inconclusive: 16.9 µM [inhibitor, single point]
COc1cccc(-c2nn[nH]n2)c1O | inconclusive: 30.1 µM [inhibitor, partial curve, poor fit]
Cc1ccc(S(=O)(=O)/N=C2/C=C(Sc3ncn[nH]3)C(=O)c3ccccc32)cc1 | inconclusive: 21.3 µM [inhibitor, partial curve, poor fit]
Cc1ccc(NC(=O)/C(C#N)=C(\N)C(Cl)(Cl)Cl)nc1 | active: 2.13 µM
CC1CCCCN1C(=S)Nc1ccc2nc3n(c(=O)c2c1)CCCCC3 (centres undefined) | inconclusive: 37.9 µM [inhibitor, single point]
O=C(OCc1c(F)cccc1Cl)c1cccc(S(=O)(=O)N2CCOCC2)c1 | inactive
COc1cccc(NC(=S)N(Cc2ccc(Cl)cc2)Cc2ccc(C(=O)O)cc2)c1 | inconclusive: 37.9 µM [inhibitor, partial curve, poor fit]
COc1ccccc1C(=O)Nc1nc2ccc(S(C)(=O)=O)cc2s1 | inconclusive: 2.13 µM [inhibitor, full curve]
CC(C)=CCOc1ccc2ccc(=O)oc2c1 | inconclusive: 21.3 µM [inhibitor, partial curve, poor fit]
COc1cc2c(cc1OC)C(SC)=NC1(CCCC1)C2 | inconclusive: 0.006 µM [inhibitor, partial curve, poor fit]
O=c1[nH][nH]c2c(N=Cc3ccccc3O)ccc(F)c12 | active: 19 µM
Cc1ccc(C(=O)c2c(NC(=O)c3ccccc3)sc(C)c2C)cc1 | inconclusive: 19 µM [inhibitor, partial curve, poor fit]
Cc1cc(NC(=O)COc2ccc(C)c(C)c2)no1 | inconclusive: 6.75 µM [inhibitor, partial curve, poor fit]
O=C(CN1CCCCCC1)Nc1ccc(Br)cc1Br | active: 16.9 µM
O=C(Nc1ccc2ccccc2n1)c1ccccc1Br | active: 3.38 µM
Cc1ccc(C(=O)OCC(=O)c2c[nH]c3ccccc23)cc1 | inconclusive: 2.39 µM [inhibitor, full curve]
Oc1[nH]c2ccccc2c1N=Nc1ccccc1F | inconclusive: 2.39 µM [inhibitor, full curve]

Reference: PubChem BioAssay AID588342 (National Center for Advancing Translational Sciences (NCATS), 2011)
